Laboratory results reported in US12622922B2, “Compositions and methods for metal containing formulations capable of modulating immune response” (The Regents of the University of Michigan, priority 2018, dated 2026).

Test system: CT26 colon cancer cells
Conditions: 2 doses of 25 μg/dose cdAMP(ps)2 intratumorally
Protocol: When tumor size reach ˜60 mm^3, 2 doses of 25 μg/dose cdAMP(ps)2 were administrated intra-tumorally on days 10 and 15. To evaluate antigen-specific immune responses, PBMCs were collected for tetramer staining on day 17 and ELISPOT analysis with AH1 antigen peptides on day 22. […] For the survival of mice after treatment, median survival time for untreated. CDN, CDN-Zn and CDNs@CaP/PEI-PEG group was 23 days, 42 days, 64 days and unreached, respectively (FIG. 4B).
For PBMC tetramer staining assay, no significant difference was observed among the groups (FIG. 4D). PBMC tetramer staining may not be sensitive enough to show antigen-specific T cell response after non-specific intra-tumoral CDN stimulation or the time point may not have been optimal. […]
All animals were cared for following federal, state, and local guidelines. […] Tumor size and survival were monitored every 2 or 3 days. Tumor size was calculated based on equation: volume=length×width^2×0.5. […] At day 17, the percentages of tumor antigen-specific CD8α+ T cells among PBMC were analyzed using the tetramer staining assay as described previously with peptide-MHC tetramer (H-2Kb-restricted AH1) (the NIH Tetramer Core Facility, Atlanta, GA). […]
We also evaluated a subset of the formulations mentioned above in tumor-bearing mice. […]

Substance: cdAMP(ps)2 [free CDN]
- median survival time: 42 days
- average tumor growth compared with the untreated group (days 10 and 15): greatly delayed
